What all share (experiment): glycan array binding signal (z-score within array); higher = stronger binding
Settings in all cases: glycan notation: IUPAC condensed, linker removed

Assay [1] addresses Gal(b1-4)Glc. In outline: (§1)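 The binding signal is a Z-score computed within each array and averaged over linkers. Arrays of the same protein sequence at different concentrations or buffers were also averaged together. Data originate from 3228 arrays in the Consortium for Functional Glycomics database, kept only where the protein sequence was available.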
The target of assay [2] is Gal(b1-4)Glc6S. Put shortly:
as §1

Assay [3] concerns the target Gal(b1-4)GlcNAc. Put shortly: as §1
The target of assay [4] is Gal(b1-4)GlcNAc(a1-6)Gal(b1-4)GlcNAc. In outline:
as §1

Assay [5] concerns the target Gal(b1-4)GlcNAc(b1-2)Man. In outline: as §1
The target of assay [6] is Gal(b1-4)GlcNAc(b1-2)Man(a1-3)Man(b1-4)GlcNAc(b1-4)GlcNAc. In outline: as §1
Assay [7] has as its target Gal(b1-4)GlcNAc(b1-2)Man(a1-3)[Gal(b1-4)GlcNAc(b1-2)Man(a1-6)]Man(b1-4)GlcNAc(b1-4)GlcNAc. Put shortly: as §1
The target of assay [8] is Gal(b1-4)GlcNAc(b1-2)Man(a1-3)[Gal(b1-4)GlcNAc(b1-2)Man(a1-6)]Man(b1-4)GlcNAc(b1-4)[Fuc(a1-6)]GlcNAc. In outline: as §1
The target of assay [9] is Gal(b1-4)GlcNAc(b1-2)Man(a1-3)[Gal(b1-4)GlcNAc(b1-2)Man(a1-6)][Gal(b1-4)GlcNAc(b1-4)]Man(b1-4)GlcNAc(b1-4)[Fuc(a1-6)]GlcNAc. Put shortly:
as §1

In assay [10] the target is Gal(b1-4)GlcNAc(b1-2)Man(a1-3)[Gal(b1-4)GlcNAc(b1-2)Man(a1-6)][GlcNAc(b1-4)]Man(b1-4)GlcNAc(b1-4)[Fuc(a1-6)]GlcNAc. In outline:
as §1

Assay [11] deals with Gal(b1-4)GlcNAc(b1-2)Man(a1-3)[GlcNAc(b1-2)Man(a1-6)]Man(b1-4)GlcNAc(b1-4)GlcNAc. In outline:
as §1

In assay [12] the target is Gal(b1-4)GlcNAc(b1-2)Man(a1-3)[GlcNAc(b1-4)][Gal(b1-4)GlcNAc(b1-2)Man(a1-6)]Man(b1-4)GlcNAc(b1-4)GlcNAc. In outline: as §1
The target in assay [13] is Gal(b1-4)GlcNAc(b1-2)Man(a1-3)[Man(a1-6)]Man(b1-4)GlcNAc(b1-4)GlcNAc. In outline:
as §1

The target in assay [14] is Gal(b1-4)GlcNAc(b1-2)Man(a1-6)Man(b1-4)GlcNAc(b1-4)GlcNAc. Put shortly:
as §1

For assay [15], the target named is Gal(b1-4)GlcNAc(b1-2)Man(a1-6)[GlcNAc(b1-2)Man(a1-3)]Man(b1-4)GlcNAc(b1-4)GlcNAc. Put shortly: as §1
Assay [16] deals with Gal(b1-4)GlcNAc(b1-2)Man(a1-6)[Man(a1-3)]Man(b1-4)GlcNAc(b1-4)GlcNAc. Put shortly: as §1
The target of assay [17] is Gal(b1-4)GlcNAc(b1-2)[Gal(b1-4)GlcNAc(b1-4)]Man(a1-3)[Gal(b1-4)GlcNAc(b1-2)Man(a1-6)]Man(b1-4)GlcNAc(b1-4)GlcNAc. In outline:
as §1

In assay [18] the target is Gal(b1-4)GlcNAc(b1-2)[Gal(b1-4)GlcNAc(b1-4)]Man(a1-3)[Gal(b1-4)GlcNAc(b1-2)[Gal(b1-4)GlcNAc(b1-6)]Man(a1-6)]Man(b1-4)GlcNAc(b1-4)GlcNAc. In outline: as §1

These results are taken from the supplement of paper PMC8728848.

The list shows a part of the results.

B1: PX14379A-bvu-539-28-539 (Bacteroides vulgatus) (protein)
chain: EPYSEIIEEDYVPTEADEIALLATTYSQLRFVMDWYGLFDLQEESGDVIVTPTRPNGWDDGGTYKQMHKHTWDNQQGQPQSIWDYCYKGIANANKILKRADEGFFTEESKPKVVAEVKGVRALWYSILCDTHGNIPIQTSFSEEVPVQSTRKQVFDFIINELKEVMPNLPTEVNKSTYGRLTQWGAKCLMARMYLNAGVYTGTPMWNECLEQCNDIINSGLFSLETNYTDIFKTENSGCVETIFAIPYDEVYNEGDNNGPVFGAHMKFLSSNSRKVFNMQTTPWGGSAANPQFINSYDPDDMRLKYTWLQGDQYSPDGVLITTFPNKLPSIYKTDTDDGYRVGKYEIKVGAKSLLSNDFPYFRYTEVLLMKAECLLRLGQNETEAAHIVSQIRERAFRESAHPEKATVDAAWLKGDTHINYGTLDEKGQIDDAGNTEVVELGGLYDEWGWEFAAEARRRTDMIRFGTYQKKSWFNHTPTANDLNGNSILFPIHLDHLNTNPNLQQNPGYAGK
With B1, the “glycan array binding signal (z-score)” value in assay [1] was -0.346; in assay [2] it was -0.307; in [3], -0.29; in assay [4] it was -0.203; in assay [5], -0.28; in assay [6], 0.346. The “glycan array binding signal (z-score)” value was -0.194 in assay [7]; 1.32 in [8]; 0.442 in assay [9]; -0.502 in [10]; 3.64 in assay [11]; -0.389 in [12]. The “glycan array binding signal (z-score)” value in assay [13] was 1.39; in assay [14] it was -0.472; in assay [15], 0.521; in assay [16] it was 0.24; in [17], -0.019; in [18], -0.201.
